Measured values: PubChem BioAssay AID485364 (National Center for Advancing Translational Sciences (NCATS), 2010)
Out of some 360,000 compounds screened, about 11,000 (3.1%) were called active. This list was built around the results that the source calls inconclusive (neither active nor inactive); the mix of calls is not that of the screen. The call rests on the fitted dose curve; in most records, active means well fitted inhibition curve with a large enough effect; inconclusive means small, poorly fitted or top-dose-only effect; inactive means no such curve, though single readings can be large or run the other way. No potency is given beside an inconclusive call; the fits are too rough.

target: Schistosoma mansoni thioredoxin glutathione reductase (TGR) (UniProt Q962Y6); assay: qHTS Assay for the Inhibitors of Schistosoma Mansoni Peroxiredoxins; conditions: purified TGR, DTNB reduction, TNB absorbance 405 nm; activity change, negative = inhibition: at 114 µM (top of the series) unless noted; further: nearly all actives have a fitted effect of over 60% in size
Procedure, shortened: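 Kinetic colorimetric format: TGR-catalysed, NADPH-driven DTNB reduction monitored via TNB absorbance. Enzyme dispensed at 20 nM; compound exposure 15 min at room temperature before reaction start.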
On the % scale 0 is the no-effect control and ±100 the full control effect; potency means the concentration at half of the fitted maximal effect; tags describe the fitted curve by direction and shape.

For `COC(=O)c1cc(S(=O)(=O)NCCCc2ccco2)c[nH]1`, which Potency is on record?
The Potency was inconclusive [inhibitor, partial curve].

`COc1ccc(C2(CNC(=O)C(=O)Nc3cccc(C(F)(F)F)c3)CCCC2)cc1OC` was tested. Which “activity change, negative = inhibition” value did it give?
Its value is inactive: 9.36%.

`CCOC(=O)CSc1nc(-c2ccncc2)ccc1C#N` was tested. Which “activity change, negative = inhibition” value did it give?
The value was inactive: 12.6%.

With `CC(C)Oc1cccc(C(=O)C2CCCN(Cc3cccn3-c3cccnc3)C2)c1` (centres undefined) as the compound, how does the Potency read?
Its Potency is inconclusive [inhibitor, partial curve].

For `Cn1c(SCC(=O)c2ccc3c(c2)OCCO3)nnc1C1CC1`, which Potency is on record?
The Potency was inconclusive [inhibitor, partial curve].

Which Potency does the source give for `Cc1ccc(/C=N/Nc2cccc3cccnc23)c(O)c1` here?
The Potency was active: 31.6 µM.

For `CC(C)N(Cc1nc(-c2ccccc2)no1)C(=O)COc1ccccc1`, which Potency is on record?
The Potency was inconclusive [inhibitor, single point].

`CN(C1=C(N2CCCCC2)C(=O)c2ccccc2C1=O)c1ccccc1` was tested. Which Potency did it give?
Its Potency is inconclusive [inhibitor, partial curve].

`Cc1cccc(CN2CCN(Cc3cccc(-n4cccn4)c3)CC2CCO)n1` (centres undefined) was tested. Which Potency did it give?
Its Potency is inconclusive [inhibitor, single point].

With `COc1ccc(N2CCN(C(=O)c3cc4c(=O)n(Cc5ccccc5)ccc4nc3C)CC2)cc1` as the compound, how does the Potency read?
Its Potency is inconclusive [inhibitor, single point].

Which Potency does the source give for `COc1ccccc1C1Nc2cccc3cccc(c23)N1` here?
The Potency was inconclusive [inhibitor, partial curve, poor fit].

`CCc1ccc(NC(=O)C(=O)N/N=C(\C)CC(=O)Nc2ccc(OC)cc2)cc1` was tested. Which Potency did it give?
Its Potency is active: 44.7 µM.

`Cc1c(Cl)cccc1-n1c(CCC(=O)O)ccc1-c1cccs1` was tested. Which Potency did it give?
Its Potency is active: 39.8 µM.

`Clc1ccc(CSc2ccc(-c3ccco3)nn2)cc1` was tested. Which Potency did it give?
Its Potency is active: 28.2 µM.

Which Potency does the source give for `CC(C)(C)NC(=O)C(c1ccncc1)N(Cc1cccs1)C(=O)c1csnn1` (centres undefined) here?
Its Potency is inconclusive [inhibitor, partial curve].

`CCn1cc(C(=O)OCC(=O)Nc2cc(Cl)ccc2OC)c(=O)c2ccc(C)nc21` was tested. Which Potency did it give?
The Potency was inconclusive [inhibitor, single point].

Which Potency does the source give for `CN1CCc2c(c3c(n2C)CCN(C)C3c2ccc(F)cc2)C1c1ccc(F)cc1` (centres undefined) here?
Its Potency is inconclusive [inhibitor, partial curve].

With `Fc1ccc(CSc2ccc(-c3ccco3)nn2)cc1` as the compound, how does the Potency read?
The Potency was active: 44.7 µM.

With `Cc1cccc(C(CC(=O)NCC2(c3ccccc3)CCCC2)c2ccccc2)c1O` (centres undefined) as the compound, how does the Potency read?
The Potency was inconclusive [inhibitor, single point].

How did the “activity change, negative = inhibition” value turn out when `Oc1ccc(-c2[nH]ncc2-c2cnn(-c3ccccc3)c2)c(O)c1` was run?
Its value is inactive: -10.4%.

With `COC(=O)C(CC(=O)c1ccc(C)cc1)n1nc(C)cc1C` (centres undefined) as the compound, how does the Potency read?
The Potency was active: 12.6 µM.

Which Potency does the source give for `CC1=C(n2nnc3ccccc32)C(c2ccccc2)C(C#N)=C(N)O1` (centres undefined) here?
Its Potency is active: 35.5 µM.

`Cc1c(C(=O)NC(=S)Nc2ccc(NC(=O)c3cccs3)cc2)oc2ccccc12` was tested. Which Potency did it give?
The Potency was active: 0.631 µM.

`CCOC(=O)c1c(C)[nH]c(C(=O)CSc2nnc(C3CC3)n2N)c1C` was tested. Which “activity change, negative = inhibition” value did it give?
Its value is inactive: -1.64%.

Which Potency does the source give for `Cc1csc(NC(=O)C(Cc2ccccc2)n2cccc2)n1` (centres undefined) here?
The Potency was inconclusive [inhibitor, partial curve].

With `O=C(Nc1c2c(nn1-c1cccc(Cl)c1)CS(=O)(=O)C2)c1ccco1` as the compound, how does the Potency read?
Its Potency is active: 44.7 µM.

For `O=C1CCCC/C1=C/Nc1ccc(S(=O)(=O)Nc2ncccn2)cc1`, which Potency is on record?
Its Potency is inconclusive [inhibitor, partial curve].

Which Potency does the source give for `Cc1cc(-n2c(=O)c(C#N)cc3c(=O)n4cccc(C)c4nc32)no1` here?
The Potency was inconclusive [inhibitor, partial curve].

`COc1cccc(Oc2ncnc(N)c2[N+](=O)[O-])c1` was tested. Which “activity change, negative = inhibition” value did it give?
The value was inactive: -33.1%.

`Cc1ccc(CN2CC34C=CC(O3)C(C(=O)NCc3ccco3)C4C2=O)cc1` (centres undefined) was tested. Which Potency did it give?
The Potency was inconclusive [inhibitor, partial curve, poor fit].

For `CCC(C(=O)NC(C)CCc1ccco1)n1nc(C)n2c(cc3occc32)c1=O` (centres undefined), which Potency is on record?
Its Potency is inconclusive [inhibitor, partial curve].

How did the Potency turn out when `O=S(=O)(c1ccccc1)c1nc(-c2ccco2)oc1NCCN1CCOCC1` was run?
Its Potency is inconclusive [inhibitor, partial curve].

For `CCCNC(=O)COC(=O)/C=C/c1ccco1`, which Potency is on record?
The Potency was active: 44.7 µM.

How did the “activity change, negative = inhibition” value turn out when `COC(=O)CNC(c1ccccc1)c1cc(C)ccc1NC(=O)CNC(=O)OCc1ccccc1` (centres undefined) was run?
The value was inactive: -8.08%.

For `O=C(CN1C(=O)CC(c2ccco2)Sc2ccccc21)NCC1CCCO1` (centres undefined), which Potency is on record?
The Potency was active: 12.6 µM.

How did the Potency turn out when `O=C(NC1CCCC1)c1ccc(COCC(F)(F)C(F)F)o1` was run?
The Potency was inconclusive [inhibitor, single point].

Which Potency does the source give for `CCOc1ccc(N2C(=O)C3CC(C)=C(C)CC3C2=O)c([N+](=O)[O-])c1` (centres undefined) here?
Its Potency is active: 20 µM.

`NC(=O)C1CC(=O)N(CCc2ccc(F)cc2)C1` (centres undefined) was tested. Which “activity change, negative = inhibition” value did it give?
Its value is inactive: -1.82%.

How did the “activity change, negative = inhibition” value turn out when `CCN(CC(=O)Nc1c(F)cccc1F)C(=O)c1cccc(-n2cnnn2)c1` was run?
Its value is inactive: -1.85%.

For `O=C(Nc1nccs1)c1ccc(Br)o1`, which “activity change, negative = inhibition” value is on record?
The value was inactive: -3.47%.

How did the “activity change, negative = inhibition” value turn out when `CN(c1ccccc1)S(=O)(=O)c1cccc(NC(=O)CC(C)(C)C)c1` was run?
Its value is inactive: -19%.

With `Cc1nc2c(C#N)cnn2c2c1CCNN2C` as the compound, how does the Potency read?
The Potency was inconclusive [inhibitor, partial curve].

`O=Cc1cccc(Oc2ccc([N+](=O)[O-])cc2[N+](=O)[O-])c1` was tested. Which Potency did it give?
The Potency was active: 44.7 µM.

Which “activity change, negative = inhibition” value does the source give for `COc1cccc(CNC(=O)C(=O)NCC(c2ccco2)N2CCOCC2)c1` (centres undefined) here?
The value was inactive: -13.5%.

How did the Potency turn out when `Cc1oc2cc(O)ccc2c(=O)c1-c1nncn1-c1ccccc1` was run?
Its Potency is inconclusive [inhibitor, partial curve].

With `O=[N+]([O-])c1ccc(-c2ccccc2)c([As](=O)(O)O)c1` as the compound, how does the Potency read?
The Potency was active: 2 µM.

For `COc1ccc(OC)c(CNS(=O)(=O)c2ccc(-c3cc(C(F)(F)F)on3)s2)c1`, which “activity change, negative = inhibition” value is on record?
Its value is inactive: 9.05%.

`CC[C@@]12C(=O)N(c3cccc(Br)c3)C(=O)N1[C@H](c1ccc(Cl)cc1)[C@@H]1C(=O)N(C3CCCCC3)C(=O)[C@@H]12` was tested. Which “activity change, negative = inhibition” value did it give?
The value was inactive: -3.53%.

Which Potency does the source give for `c1cc2c(cc1NC1CCCCCC1)OCO2` here?
The Potency was inconclusive [inhibitor, partial curve].
